Experimental data taken from PubChem BioAssay AID485344 (National Center for Advancing Translational Sciences (NCATS), 2010).
Where “and” joins values, the source holds several entries; their conditions need not be identical. Equal entries are not always repeated. Out of some 340,000 compounds screened, about 6,900 (2%) were called active. Rule as the data show it: active = inhibition above about 30%; inactive = below that, where a call was filed. The entries are a selection whose mix differs from that of the whole data set. The source gives no active or inactive call for entries shown without one.
Also: 0% is about no effect.

These compounds were tested against D(2) dopamine receptor (Homo sapiens) (UniProt P14416) (assay: HTS Assay for Allosteric Antagonists of the Human D2 Dopamine Receptor: Primary Screen for Antagonists). Details: HEK293 TREx D2 cells, calcium flux, dopamine EC80; at 10 µM; stronger effect = higher value.
Chain of UniProt P14416 (P14416 whole entry, looked up): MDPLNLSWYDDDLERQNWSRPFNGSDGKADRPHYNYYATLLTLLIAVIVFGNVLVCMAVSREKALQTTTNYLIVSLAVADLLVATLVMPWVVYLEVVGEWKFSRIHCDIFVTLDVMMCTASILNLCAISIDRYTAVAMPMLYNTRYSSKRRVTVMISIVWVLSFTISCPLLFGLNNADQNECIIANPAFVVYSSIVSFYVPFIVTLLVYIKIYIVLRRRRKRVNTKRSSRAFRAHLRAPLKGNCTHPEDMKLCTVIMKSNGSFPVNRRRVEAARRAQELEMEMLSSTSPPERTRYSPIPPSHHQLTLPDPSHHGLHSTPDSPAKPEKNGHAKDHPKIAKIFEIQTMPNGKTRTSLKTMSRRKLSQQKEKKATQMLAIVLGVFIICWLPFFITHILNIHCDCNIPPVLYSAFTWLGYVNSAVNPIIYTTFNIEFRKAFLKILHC
How it was run: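 Dopamine at EC80 is the agonist stimulus; test compounds precede it by 180 s. Calcium flux read kinetically in a force-coupled, inducible HEK293 T-REx D2 cell line.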
For `COc1ccccc1Nc1nc(N)nc(N)c1S(=O)(=O)c1ccccc1`, the inhibition was -12.3%. Work on `Cc1ccc(-c2c3c(=O)n(C)c(=O)n(C)c3c3cnc4ccccc4n23)cc1` yielded an inhibition of 11.3%. `Cc1ccc(S(=O)(=O)CC(=O)Nc2nc3c(C)cccc3s2)cc1` was tested, and the inhibition was -1.33%. `Cc1ccc(N2CCN(Cc3nnc(-c4ccccc4F)o3)CC2)c(C)c1` showed an inhibition of 7.44%. Compound `CSc1ccc(/C=C/c2nc3ccccc3n2S(=O)(=O)c2ccc(Br)cc2)cc1` has an inhibition of -7.95%. For `COc1ccc(/C=C/C(=O)Nc2cccc(F)c2)cc1S(=O)(=O)N1CCOCC1`, the inhibition was active: 55.6%. For `CCOC(=O)c1cccc(NS(=O)(=O)c2ccc(-c3coc(C)n3)cc2)c1`, the inhibition was -7.73%. `Cc1cc(C)c(NC(=O)C2CCN(C(=O)N3CCOc4ccccc43)CC2)c(C)c1` was tested, and the inhibition was 26.4%. Work on `COc1cc2c(cc1NC(=O)COc1ccc(Br)cc1)oc1ccccc12` yielded an inhibition of 17.4%. `COc1ccc(-c2cc(C(F)(F)F)n3ncc(-c4ccccc4)c3n2)cc1` gave an inhibition of 0.861%. For `COC(=O)c1ccc2c(=O)n(CCc3ccc(S(N)(=O)=O)cc3)c(SCC(=O)C(C)(C)C)nc2c1`, the inhibition was -24.9%. `CCc1cccc(N2C(=O)CS(=O)(=O)C23C(=O)N(Cc2ccccc2)c2ccc(C)cc23)c1` (stereo not drawn) was tested, and the inhibition was -3.17%. With `Cc1ccc(Nc2nc3ccccc3nc2-n2nc(C)cc2C)c(Cl)c1` the inhibition was 15.1%. With `CN(C(=O)c1ccncc1)c1nnc(-c2ccccn2)s1` the inhibition was active: 34.7%. In the case of `Cc1cccc(C(=O)N2c3ncnn3C3(CCCCC3)[C@@H]3CCCC[C@@H]32)c1`, the inhibition is reported as -2.77%. Work on `CSc1ccc(CNC(=O)c2sc3ncnc(N(C)C4CCCCC4)c3c2C)cc1` yielded an inhibition of -21.2%. For `Cc1cccc(Nc2cc(C)nc(-n3nc(C)cc3C)n2)c1`, the inhibition was -15.2%. For `CCOc1ccc(CN2C(=O)C(=O)c3cccc(C)c32)cc1OC`, the inhibition was 1.89%. In the case of `Cc1c(C(=O)Nc2ccc(F)cc2)oc2ccc(S(=O)(=O)N3CCCCCC3)cc12`, the inhibition is reported as -1.7%. Work on `CCCCOc1ccccc1Cn1c(=O)sc2ccccc21` yielded an inhibition of -8.51%. `Cc1cccc(NC(=O)CN(C)S(=O)(=O)c2ccc3c(c2)CCC(=O)N3)c1C` was tested, and the inhibition was -8.4%. `CCOc1ccc(C(=O)Nc2cccc(NC(=O)c3ccc(Cl)cc3Cl)c2)cc1` gave an inhibition of -1.19%. Compound `COc1ccccc1CNc1nc2ccccc2c2nc(-c3cccc(C)c3)nn12` has an inhibition of 1.39%. In the case of `Clc1ccc2c(c1)CCc1cccnc1C2=C1CCNCC1`, the inhibition is reported as active: 53.6% and active: 30.2%. With `Cc1cccc(CCNC(=O)c2cc3c(=O)[nH]c4ccc(C)cc4c3s2)c1` the inhibition was 10.4%. `CCn1cc(C(=O)NCCN(CC(C)C)CC(C)C)c(=O)c2cc(S(=O)(=O)N(C)C3CCCCC3)ccc21` gave an inhibition of -4.55%. `COc1cc([N+](=O)[O-])ccc1NC(=O)N1CCC2(CC1)Nc1ccccc1-n1cccc12` showed an inhibition of 6.86%. For `COc1ccc2cc3cc(C(=O)N4CCN(c5cccc(C(F)(F)F)c5)CC4)sc3nc2c1`, the inhibition was -9.11%. `COc1ccc(-c2nc3sc(CCNC(=O)C(=O)Nc4cc(F)ccc4F)c(C)n3n2)cc1` showed an inhibition of 27.6%. Work on `Cn1c(=O)n(C)c2cc(N3CCOCC3)c(NC(=O)c3ccc(C(C)(C)C)cc3)cc21` yielded an inhibition of -13%. In the case of `Nc1ncnc(Nc2ccccn2)c1[N+](=O)[O-]`, the inhibition is reported as active: 30.9%. `CCOCCCn1c(SCC(=O)NCc2ccccc2)nc2c(sc3ccccc32)c1=O` gave an inhibition of 5.26%. Work on `COc1cccc(NC(=O)Nc2ccc3snnc3c2)c1` yielded an inhibition of -3.67%. For `CC(C)CCNC(=O)c1cc(-c2ccc(Br)s2)nc2ccccc12`, the inhibition was 15.4%. With `COc1ccc(-c2cc(C)no2)cc1S(=O)(=O)N1CCCC(C)C1` (stereo not drawn) the inhibition was -1.29%. `Cc1cccc(NC(=O)c2ccc3[nH]c(C)cc(=O)c3c2)c1` gave an inhibition of 3.45%. `Cn1c(=O)[nH]c(=O)c2c1nc(CN1CCN(c3ccccc3)CC1)n2Cc1c(F)cccc1Cl` gave an inhibition of -12.3%. With `COc1cc(C2=NOC(C(=O)Nc3ccc(C)cc3)C2)cc(OC)c1OC` (stereo not drawn) the inhibition was active: 57.1%. `CCC(=O)N1CCc2cc(S(=O)(=O)NC(Cc3ccccc3)C(=O)NCc3ccccc3OC)ccc21` (stereo not drawn) was tested, and the inhibition was -24.8%. Work on `CC(C)(C)c1ccc(C(=O)Nc2ccc(NC(=O)c3ccc(Cl)c(Cl)c3)cc2)cc1` yielded an inhibition of 7.98%. Work on `COc1cc(NC(=O)C(CC(C)C)N2Cc3ccccc3C2=O)cc(OC)c1` (stereo not drawn) yielded an inhibition of -14.7%. `CCOc1ccc(NC(=O)CSc2nc3ccsc3c(=O)n2CC)cc1` was tested, and the inhibition was -7.65%. For `CCN(CC)C(=O)c1ccc2c(c1)N(Cc1ccccc1F)C(=O)c1ccccc1S2=O` (stereo not drawn), the inhibition was -2.63%. `Cc1ccc(NC(=O)Cn2c(=O)nc(-c3ccccc3)c3ccccc32)cc1` was tested, and the inhibition was 4.91%. `CCCCNC(=O)CCn1nc(-c2ccc(Cl)cc2)c2ccccc2c1=O` showed an inhibition of -5.21%. Compound `CCCCOc1ccc(CNC(=O)c2cnc3sc(N4CCCCCC4)nn3c2=O)cc1` has an inhibition of 0.486%. `Cc1cccc(C(=O)n2nc(-c3cccnc3)nc2NCc2ccc(F)cc2)c1` gave an inhibition of -4.14%. Compound `CCC(Oc1ccccc1)C(=O)Nc1cc(-c2ccccc2F)nn1-c1ccccc1` (stereo not drawn) has an inhibition of -12.7%.
